In all, about 350,000 compounds went through this assay and about 31,000 (8.9%) were called active. The inconclusive results got no clear call from the source; some entries with a clear call stand among them for comparison. The call rests on the fitted dose curve; in most records, active means well fitted inhibition curve with a large enough effect; inconclusive means small, poorly fitted or top-dose-only effect; inactive means no such curve, though single readings can be large or run the other way. Potencies of inconclusive entries are doubtful fits and often do not repeat.
biological target: Histone-lysine N-methyltransferase EHMT2 (Homo sapiens) (UniProt Q96KQ7); assay: qHTS Assay for Inhibitors of Histone Lysine Methyltransferase G9a; conditions: G9a H3K9 monomethylation, AlphaScreen, 2 h; activity, negative = inhibition: at 59 µM (top of the series) unless noted; further: nearly all actives have a fitted effect of over 75% in size
In short: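 AlphaScreen read-out: biotin-H3K9 peptide (500 nM) methylation by 20 nM enzyme with 20 uM SAM, 2 h at room temperature after 15 min compound preincubation; anti-monomethyl H3K9 antibody plus donor/acceptor beads, 10 min dark.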
On the % scale 0 is the no-effect control and ±100 the full control effect; potency means the concentration at half of the fitted maximal effect; tags describe the fitted curve by direction and shape.

UniProt Q96KQ7, sequence (Q96KQ7 whole entry, looked up): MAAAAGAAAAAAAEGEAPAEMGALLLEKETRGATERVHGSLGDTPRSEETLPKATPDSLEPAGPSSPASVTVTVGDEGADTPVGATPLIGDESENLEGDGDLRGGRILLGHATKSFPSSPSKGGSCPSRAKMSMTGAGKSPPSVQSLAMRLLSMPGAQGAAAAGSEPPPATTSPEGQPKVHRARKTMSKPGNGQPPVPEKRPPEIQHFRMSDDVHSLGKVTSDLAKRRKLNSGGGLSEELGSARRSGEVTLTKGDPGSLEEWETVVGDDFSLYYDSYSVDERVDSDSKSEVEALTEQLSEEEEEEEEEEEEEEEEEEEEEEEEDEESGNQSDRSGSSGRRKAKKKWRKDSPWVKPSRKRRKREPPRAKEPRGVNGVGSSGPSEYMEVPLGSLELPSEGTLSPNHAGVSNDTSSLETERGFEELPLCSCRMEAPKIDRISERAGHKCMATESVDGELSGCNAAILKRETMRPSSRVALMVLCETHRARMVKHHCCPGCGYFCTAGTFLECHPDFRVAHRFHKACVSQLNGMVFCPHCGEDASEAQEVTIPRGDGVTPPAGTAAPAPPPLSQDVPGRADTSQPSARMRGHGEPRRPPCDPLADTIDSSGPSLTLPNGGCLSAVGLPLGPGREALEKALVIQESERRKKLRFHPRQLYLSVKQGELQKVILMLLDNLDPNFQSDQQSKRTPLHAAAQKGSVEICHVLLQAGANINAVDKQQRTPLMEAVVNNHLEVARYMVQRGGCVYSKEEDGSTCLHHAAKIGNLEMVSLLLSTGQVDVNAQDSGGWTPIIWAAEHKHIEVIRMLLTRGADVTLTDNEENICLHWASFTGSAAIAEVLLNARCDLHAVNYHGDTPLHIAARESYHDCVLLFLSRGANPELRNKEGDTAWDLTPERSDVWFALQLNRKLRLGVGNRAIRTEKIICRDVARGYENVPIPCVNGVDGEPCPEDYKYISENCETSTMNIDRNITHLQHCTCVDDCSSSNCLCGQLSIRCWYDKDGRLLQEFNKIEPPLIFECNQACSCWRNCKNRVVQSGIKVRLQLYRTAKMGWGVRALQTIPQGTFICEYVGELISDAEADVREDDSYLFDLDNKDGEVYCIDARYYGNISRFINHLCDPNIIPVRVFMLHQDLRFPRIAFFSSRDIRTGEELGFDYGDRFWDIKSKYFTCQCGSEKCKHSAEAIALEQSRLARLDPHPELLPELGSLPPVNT

Row | SMILES | Potency | activity, negative = inhibition
1 | O=C(O)CCSc1ccc([N+](=O)[O-])cc1[N+](=O)[O-] | inconclusive: 39.8 µM [inhibitor, single point] | 
2 | Cc1ccc(-n2c(CC#N)n[nH]c2=S)c(C)c1 | active: 22.4 µM | 
3 | CCn1c(CNC(=O)c2ccc(OC)cc2)nnc1SCC(=O)c1ccccc1 | inactive | 
4 | CCCCN(CC)C(=S)Nc1ccc2nc3n(c(=O)c2c1)CCCCC3 | inconclusive: 1.12 µM [inhibitor, partial curve, poor fit] | 
5 | CCC(Cc1ccccc1)NC(=O)Cn1cccc1C(=O)c1ccccc1 (centres undefined) | inactive | 
6 | COc1ccccc1/C=C1\CCCC2=C1Nc1nnnn1C2c1ccccc1OC (centres undefined) | active: 10 µM | 
7 | C/C(=N\N=C(N)N)c1cc(Cl)ccc1Cl | inconclusive: 70.8 µM [inhibitor, partial curve] | 
8 | Cc1cc(C)cc(C(=O)NC(CC(N)=O)c2ccc(NC3CCCCCCC3)c([N+](=O)[O-])c2)c1 (centres undefined) | inconclusive: 79.4 µM [inhibitor, single point] | 
9 | CCCc1[nH]n(-c2ccc([N+](=O)[O-])cc2)c(=O)c1C=NCCc1c[nH]c2ccccc12 | inconclusive: 56.2 µM [inhibitor, partial curve] | 
10 | CC(=O)N1CCN(CCN=CC2=C(O)CC(C)(C)CC2=O)CC1 |  | inconclusive: -75.6% [inhibitor]
11 | NC/C(=N\O)c1ccc(Cl)cc1Cl | inconclusive: 89.1 µM [inhibitor, single point] | 
12 | COc1ccccc1NS(=O)(=O)c1cc(NC(=O)CCC(=O)c2cccs2)ccc1Cl | inconclusive: 2 µM [inhibitor, full curve] | 
13 | COc1ccc(Cc2nc3ccccc3[nH]c2=O)cc1 | inconclusive: 25.1 µM [inhibitor, partial curve, poor fit] | 
14 | O=C(O)c1cccc(Nc2nc3ccccc3nc2NS(=O)(=O)c2cccs2)c1 | active: 44.7 µM | 
15 | C[C@@](N)(C(=O)O)[C@@H]1C[C@@H]1C(=O)O | inactive | 
16 | CCN1CCN(C(c2cc(OC)c(OC)c(OC)c2)c2nnnn2C(C)C)CC1 (centres undefined) | inconclusive: 0.708 µM [inhibitor, full curve, poor fit] | 
17 | CCc1ccc(C2c3[nH]c4ccccc4c3CCN2C(=O)c2cc(C)nn2C)cc1 (centres undefined) | active: 15.8 µM | 
18 | Cc1cc(=O)n2nc(N3CCCC(C(=O)Nc4ccc(C)c(C)c4)C3)sc2n1 (centres undefined) | inactive | 
19 | COc1ccc(Cl)cc1NC(=O)COC(=O)CCNS(=O)(=O)c1cccs1 |  | inactive: -7.91% [at 0.501 µM]
20 | CCn1cc(/C=C/C(=O)Nc2ccn(Cc3c(F)c(F)c(F)c(F)c3F)n2)cn1 | inconclusive: 79.4 µM [inhibitor, partial curve, poor fit] | 
21 | O=C(c1ccccc1Cl)N1c2ncnn2C2(CCCCC2)[C@@H]2CCCC[C@@H]21 | inactive | 
22 | CCOC(=O)c1c(S(=O)(=O)N2CCCC(C(=O)NCc3ccc(Cl)cc3)C2)c(C)n(C)c1C (centres undefined) | inactive | 

Row | SMILES | Potency | activity, negative = inhibition
23 | Cc1csc(SC(C)C(=O)NCC2CCCO2)n1 (centres undefined) | active: 39.8 µM | 
24 | NC(=O)c1ccc(N2CCN(c3ccc(O)cc3)CC2)c([N+](=O)[O-])c1 | inconclusive: 3.98 µM [inhibitor, single point] | 
25 | Cc1cccc(N2CCN(S(=O)(=O)c3ccc4c(c3)CCN4C(=O)CCC(=O)O)CC2C)c1 (centres undefined) | inconclusive: 89.1 µM [inhibitor, single point] | 
26 | O=[N+]([O-])c1cccc(P(=O)(O)c2cccc([N+](=O)[O-])c2)c1 | inconclusive: 89.1 µM [inhibitor, single point] | 
27 | O=[N+]([O-])c1cc(Cl)ccc1N1CCOCC1 | inconclusive: 44.7 µM [inhibitor, partial curve] | 
28 | Nc1nc(Nc2ccccc2F)sc1C(=O)c1ccc(Cl)cc1 | inconclusive: 39.8 µM [inhibitor, single point] | 
29 | COc1cc(Cl)c(C)cc1NC(=O)CSc1nnc(-c2ccco2)n1CC(C)C | inconclusive: 39.8 µM [inhibitor, single point] | 
30 | CC1(C)C2CCC1(CS(=O)(=O)NCc1ccc(C(=O)O)cc1)C(=O)C2 (centres undefined) | inconclusive: 44.7 µM [inhibitor, partial curve, poor fit] | 
31 | CCOC(=S)SCC(=O)N1CCc2cc(OC)ccc2C1C1C(=O)CCCC1=O (centres undefined) | inconclusive: 35.5 µM [inhibitor, single point] | 
32 | CCOC(=O)C1CCN(C(=O)c2cccc(C(=O)N3CCC(C(=O)OCC)CC3)c2)CC1 | inactive | 
33 | CCOC(=O)C1=C2c3ccc4ccccc4c3CC(C)(C)N2C(=O)C1=O | inconclusive: 20 µM [inhibitor, single point] | 
34 | O=C(COc1ccc(/C=C2/NC(=O)NC2=O)cc1)Nc1ccc(F)cc1 | inactive | 
35 | COC(=O)C1ON2OC(C(=O)OC)C(C(=O)OC)C2C1CC(C)=O (centres undefined) | inconclusive: 39.8 µM [inhibitor, single point] | 
36 | O=c1cc(-c2ccccc2)n2c(SCc3ccccc3)nnc2[nH]1 | inconclusive: 3.98 µM [inhibitor, single point] | 
37 | CCS(=O)(=O)N1CCN(C(C)CCc2ccccc2)CC1 (centres undefined) | inconclusive: 31.6 µM [inhibitor, single point] | 
38 | COc1cc(OC)c2ccc(=O)oc2c1C(CC(=O)N1CCCC1)c1ccc(N(C)C)cc1 (centres undefined) |  | inconclusive: -74.8% [inhibitor]
39 | CCNC(=S)NNC(=O)CSc1nc2ccccc2[nH]1 | active: 44.7 µM | 
40 | CCOC(=O)N1CCN(c2c(NCCCN(CC)c3cccc(C)c3)c(=O)c2=O)CC1 | active: 14.1 µM | 
41 | O=C1CC(N2CCN(C(c3ccccc3)c3ccccc3)CC2)C(=O)N1 (centres undefined) | inconclusive: 3.98 µM [inhibitor, partial curve, poor fit] | 
42 | O=C(NCc1ccco1)c1ccc(COc2ccccc2Cl)cc1 | inconclusive: 15.8 µM [inhibitor, partial curve] | 
43 | CC(=O)NC1C(=O)N(CCN2CCOCC2)c2ccc(F)cc21 (centres undefined) | active: 31.6 µM | 
44 | O=C(CN1C(=O)NC2(CCCCCCC2)C1=O)NC(=O)NCc1ccco1 | inconclusive: 3.98 µM [inhibitor, single point] | 
